Results from patent US20240209061A1 (Pfizer, published 2024).
Several values for one entry are separate records, joined by “and”; a condition that tells them apart may be missing. Identical values can stand only once.

Legend:
[1] = molecular target: T1, CD28 expressed on Jurkat T cell line / human T cells (human, UniProt P10747 19-220); assay: cell-based or functional assay
[2] = molecular target: T1, CD28 expressed on Jurkat T cell line / …; assay: cell-based or functional assay; remark: listed apart in the source
[3] = molecular target: T1, CD28 expressed on Jurkat T cell line / …; assay: flow cytometry on Jurkat cells (CD28), CD80-Fc 0.025-500 nM on ice, PE goat anti-human Fc
Method: (§1) Binding affinity of CD80-Fc fusion proteins (WT and variant) against CD28 expressed on Jurkat T cell line (ATCC TIB-152) was measured by flow cytometry. Jurkat cells (100,000 cells suspended in 100 μL PBS supplemented with 0.5% BSA, 2 mM EDTA, and 10% normal goat serum) were incubated with CD80-Fc fusion proteins at concentrations ranging 0.025-500 nM on ice for 30 minutes. Cells were then washed with PBS supplemented with 0.5% BSA and 2 mM EDTA twice. […] Afterward, cells were washed with PBS supplemented with 0.5% BSA and 2 mM EDTA twice. Finally, cells were suspended in PBS containing 0.5 μg/mL 7-amino-actinomycin D and acquired on BD LSRFortessa X-20 flow cytometer. Data were analyzed by Flowjo v10 software (Flowjo, LLC). FIG. 3 and Table 1 show the binding affinity of CD80-Fc fusion proteins (WT and variants) against CD28 expressed on Jurkat cells.

[4] = molecular target: T1, CD28 expressed on Jurkat T cell line / …; assay: flow cytometry on Jurkat cells, PE anti-human Fc detection
Method: as §1

[5] = molecular target: T1, CD28 expressed on Jurkat T cell line / …; assay: cell-based or functional assay; remark: listed apart in the source
insulin = molecular target: T2, insulin; assay: insulin-binding ELISA (non-specific binding)
T2 construct: Polyspecificity reagent
Method: Variant CD80-Fc fusion proteins were assessed by measuring non-specific binding using a DNA- and insulin-binding ELISA (Avery et al., MAbs. 2018 February/March; 10(2): 244-255) and for self-interaction in an AC-SINS assay (affinity-capture self-interaction nanoparticle spectroscopy; Liu et al., 2014, mAbs 6:483-92). DNA- and insulin-binding scores were calculated as the signal ratio of the ELISA signal of the CD80-Fc fusion protein at 10 μg/ml to the ELISA signal in the absence of the Fc-fusion protein (buffer only). For the AC-SINS assay, proteins are captured by anti-human Fc antibodies coated on gold nanoparticles. […] The score ranges obtained from these in vitro assays correlate well with in vivo clearance using huFcRn transgenic (Tg32) mouse. Therapeutic proteins with high scores are at high risk for rapid clearance and unfavorable PK and therapeutics that score low are at low risk and favorable PK.

[6] = molecular target: T1, CD28 expressed on Jurkat T cell line / …; assay: cell-based or functional assay; remark: listed apart in the source
[7] = molecular target: T1, CD28 expressed on Jurkat T cell line / …; assay: cell-based or functional assay; remark: listed apart in the source

T2 sequence (P01308 25-54, chain 1 of 2): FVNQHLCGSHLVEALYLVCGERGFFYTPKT
T2 sequence (P01308 90-110, chain 2 of 2): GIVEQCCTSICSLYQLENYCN

| Binder | EC50, luciferase reporter, Jurkat-IL-2-Luc and HCT116-CD64 co-culture (further experiment) [1] [nM] | EC50, luciferase reporter, Jurkat-NYESO1-IL-2-Luc and A375-CD64 co-culture (further experiment) [2] [nM] | EC50 (read off the curve) [3] [nM] | Kd [4] [nM] | EC50, luciferase reporter, Jurkat-CTLA-4-IL-2-Luc and HCT116-CD64 co-culture [5] [nM] | Insulin Score (insulin) | EC50, luciferase reporter, Jurkat-IL-2-Luc and HCT116-CD64 co-culture [1] | EC50, luciferase reporter, Jurkat-NYESO1-IL-2-Luc and A375-CD64 co-culture [2] | EC50, IL-2 release, primary T cell and HCT116-CD64 co-culture [6] | IL-2 EC50, human PBMC assay with plate-bound anti-CD3 (average of 5 donors) [7] [nM] |
| --- | --- | --- | --- | --- | --- | --- | --- | --- | --- | --- |
| CD80-A91S-Fc (Fc fusion) VIHVTKEVKEVATLSCGHNVSVEELAQTRIYWQKEKKMVLTMMSGDMNIWPEYKNRTIFDITNNLSIVILALRPSDEGTYECVVLKYEKDSFKREHLAEVTLSVKADFPTPSISDFEIPTSNIRRIICSTSGGFPEPHLSWLENGEELNAINTTVSQDPETELYAVSSKLDFNMTTNHSFMCLIKYGHLRVNQTFNWNTTKQEHFPDN[sequence of human IgG1 Fc with C220S (EU numbers) omitted] | 0.5 | 1.1 | ~20 | 20 | 1.8 |  |  |  |  |  |
| CD80-K89D-D90N-Fc (Fc fusion) VIHVTKEVKEVATLSCGHNVSVEELAQTRIYWQKEKKMVLTMMSGDMNIWPEYKNRTIFDITNNLSIVILALRPSDEGTYECVVLKYEDNAFKREHLAEVTLSVKADFPTPSISDFEIPTSNIRRIICSTSGGFPEPHLSWLENGEELNAINTTVSQDPETELYAVSSKLDFNMTTNHSFMCLIKYGHLRVNQTFNWNTTKQEHFPDN[sequence of human IgG1 Fc with C220S (EU numbers) omitted] |  |  |  |  |  |  | 22.7 ng/mL and 0.228 nM | 5.8 ng/mL and 0.059 nM | 40.4 ng/mL and 0.41 nM |  |
| CD80-K89D-D90Q-Fc (Fc fusion) VIHVTKEVKEVATLSCGHNVSVEELAQTRIYWQKEKKMVLTMMSGDMNIWPEYKNRTIFDITNNLSIVILALRPSDEGTYECVVLKYEDQAFKREHLAEVTLSVKADFPTPSISDFEIPTSNIRRIICSTSGGFPEPHLSWLENGEELNAINTTVSQDPETELYAVSSKLDFNMTTNHSFMCLIKYGHLRVNQTFNWNTTKQEHFPDN[sequence of human IgG1 Fc with C220S (EU numbers) omitted] |  |  |  |  |  |  | 20.3 ng/mL and 0.204 nM | 5.5 ng/mL and 0.055 nM | 35.8 ng/mL and 0.36 nM |  |
| CD80-D90Q-Fc (Fc fusion) VIHVTKEVKEVATLSCGHNVSVEELAQTRIYWQKEKKMVLTMMSGDMNIWPEYKNRTIFDITNNLSIVILALRPSDEGTYECVVLKYEKQAFKREHLAEVTLSVKADFPTPSISDFEIPTSNIRRIICSTSGGFPEPHLSWLENGEELNAINTTVSQDPETELYAVSSKLDFNMTTNHSFMCLIKYGHLRVNQTFNWNTTKQEHFPDN[sequence of human IgG1 Fc with C220S (EU numbers) omitted] |  |  | ~50 | 49 | 1 | 1 ratio of ELISA signal at 10 µg/ml to buffer only | 28.2 ng/mL and 0.285 nM | 9.8 ng/mL and 0.099 nM | 31.9 ng/mL and 0.32 nM | 7.45 |
| CD80-D90N-Fc (Fc fusion) VIHVTKEVKEVATLSCGHNVSVEELAQTRIYWQKEKKMVLTMMSGDMNIWPEYKNRTIFDITNNLSIVILALRPSDEGTYECVVLKYEKNAFKREHLAEVTLSVKADFPTPSISDFEIPTSNIRRIICSTSGGFPEPHLSWLENGEELNAINTTVSQDPETELYAVSSKLDFNMTTNHSFMCLIKYGHLRVNQTFNWNTTKQEHFPDN[sequence of human IgG1 Fc with C220S (EU numbers) omitted] |  |  |  |  |  |  | 23.9 ng/mL and 0.24 nM | 10.5 ng/mL and 0.105 nM | 0.33 nM and 33 ng/mL |  |
| CD80-K89D-D90K-Fc (Fc fusion) VIHVTKEVKEVATLSCGHNVSVEELAQTRIYWQKEKKMVLTMMSGDMNIWPEYKNRTIFDITNNLSIVILALRPSDEGTYECVVLKYEDKAFKREHLAEVTLSVKADFPTPSISDFEIPTSNIRRIICSTSGGFPEPHLSWLENGEELNAINTTVSQDPETELYAVSSKLDFNMTTNHSFMCLIKYGHLRVNQTFNWNTTKQEHFPDN[sequence of human IgG1 Fc with C220S (EU numbers) omitted] |  |  |  |  |  |  | 8.8 ng/mL and 0.088 nM |  | 15.3 ng/mL and 0.16 nM |  |

The next lines start with the values.

| EC50, luciferase reporter, Jurkat-IL-2-Luc and HCT116-CD64 co-culture (further experiment) [1] [nM] | EC50, luciferase reporter, Jurkat-NYESO1-IL-2-Luc and A375-CD64 co-culture (further experiment) [2] [nM] | EC50 (read off the curve) [3] [nM] | Kd [4] [nM] | EC50, luciferase reporter, Jurkat-CTLA-4-IL-2-Luc and HCT116-CD64 co-culture [5] [nM] | Insulin Score (insulin) | EC50, luciferase reporter, Jurkat-IL-2-Luc and HCT116-CD64 co-culture [1] | EC50, luciferase reporter, Jurkat-NYESO1-IL-2-Luc and A375-CD64 co-culture [2] | EC50, IL-2 release, primary T cell and HCT116-CD64 co-culture [6] | IL-2 EC50, human PBMC assay with plate-bound anti-CD3 (average of 5 donors) [7] [nM] | Binder |
| --- | --- | --- | --- | --- | --- | --- | --- | --- | --- | --- |
|  |  |  |  |  | 1 ratio of ELISA signal at 10 µg/ml to buffer only |  |  |  |  | CD80-K89Q-D90Q-V22C-G45C-Fc (Fc fusion) VIHVTKEVKEVATLSCGHNVSCEELAQTRIYWQKEKKMVLTMMSCDMNIWPEYKNRTIFDITNNLSIVILALRPSDEGTYECVVLKYEQQAFKREHLAEVTLSVKADFPTPSISDFEIPTSNIRRIICSTSGGFPEPHLSWLENGEELNAINTTVSQDPETELYAVSSKLDFNMTTNHSFMCLIKYGHLRVNQTFNWNTTKQEHFPDN[sequence of human IgG1 Fc with C220S (EU numbers) omitted] |
|  |  |  |  |  | 1 ratio of ELISA signal at 10 µg/ml to buffer only |  |  |  |  | CD80-K89Q-D90Q-I61C-Fc (Fc fusion, also called CD80-K89Q-D90Q-161C-Fc (so in the source)) VIHVTKEVKEVATLSCGHNVSVEELAQTRIYWQKEKKMVLTMMSGDMNIWPEYKNRTIFDCTNNLSIVILALRPSDEGTYECVVLKYEQQAFKREHLAEVTLSVKADFPTPSISDFEIPTSNIRRIICSTSGGFPEPHLSWLENGEELNAINTTVSQDPETELYAVSSKLDFNMTTNHSFMCLIKYGHLRVNQTFNWNTTKQEHFPDN[sequence of human IgG1 Fc with C220S (EU numbers) omitted] |
|  |  |  | 91 | 1.8 |  | 70.2 ng/mL and 0.709 nM | 89.6 ng/mL and 0.906 nM | 92.9 ng/mL and 0.94 nM |  | CD80-K89Q-Fc (Fc fusion) VIHVTKEVKEVATLSCGHNVSVEELAQTRIYWQKEKKMVLTMMSGDMNIWPEYKNRTIFDITNNLSIVILALRPSDEGTYECVVLKYEQDAFKREHLAEVTLSVKADFPTPSISDFEIPTSNIRRIICSTSGGFPEPHLSWLENGEELNAINTTVSQDPETELYAVSSKLDFNMTTNHSFMCLIKYGHLRVNQTFNWNTTKQEHFPDN[sequence of human IgG1 Fc with C220S (EU numbers) omitted] |
|  |  | ~30 | 23 | 0.8 | 2 ratio of ELISA signal at 10 µg/ml to buffer only | 17.7 ng/mL and 0.179 nM | 11.5 ng/mL and 0.116 nM | 43.3 ng/mL and 0.46 nM | 6.12 | CD80-K89Q-D90Q-Fc (Fc fusion) VIHVTKEVKEVATLSCGHNVSVEELAQTRIYWQKEKKMVLTMMSGDMNIWPEYKNRTIFDITNNLSIVILALRPSDEGTYECVVLKYEQQAFKREHLAEVTLSVKADFPTPSISDFEIPTSNIRRIICSTSGGFPEPHLSWLENGEELNAINTTVSQDPETELYAVSSKLDFNMTTNHSFMCLIKYGHLRVNQTFNWNTTKQEHFPDN[sequence of human IgG1 Fc with C220S (EU numbers) omitted] |
|  |  | ~30 | 29 | 0.8 |  | 14.4 ng/mL and 0.145 nM | 9.1 ng/mL and 0.092 nM | 17.9 ng/mL and 0.18 nM |  | CD80-D90K-Fc (Fc fusion) VIHVTKEVKEVATLSCGHNVSVEELAQTRIYWQKEKKMVLTMMSGDMNIWPEYKNRTIFDITNNLSIVILALRPSDEGTYECVVLKYEKKAFKREHLAEVTLSVKADFPTPSISDFEIPTSNIRRIICSTSGGFPEPHLSWLENGEELNAINTTVSQDPETELYAVSSKLDFNMTTNHSFMCLIKYGHLRVNQTFNWNTTKQEHFPDN[sequence of human IgG1 Fc with C220S (EU numbers) omitted] |
